# Results as given in PubChem BioAssay AID1645882 (National Center for Advancing Translational Sciences (NCATS), 2021).
# Screen size: about 16,000 compounds; about 120 (0.75%) were called active. Inconclusive results (about 4%) are left out. The call rests on the fitted dose curve; in most records, active means well fitted inhibition curve with a large enough effect; inconclusive means small, poorly fitted or top-dose-only effect; inactive means no such curve, though single readings can be large or run the other way. This is one part of the list.
# Biological target: Rap guanine nucleotide exchange factor 3 (Homo sapiens) (UniProt O95398)
# Assay: Validation qHTS for antagonist of cAMP-regulated guanine nucleotide exchange factor 3 (EPAC1);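 further: plate controls were DMSO for no effect and ATA control for full effect; nearly all actives have a fitted effect of over 75% in size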
# Settings: EPAC1 Rap1B-BODIPY-GDP exchange, fluorescence; activity change, negative = inhibition: at the top concentration
# Summary of the method: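 Nucleotide exchange followed as fluorescence loss when BODIPY-GDP leaves Rap1B (480 nm excitation, 540 nm emission), read at 5 min intervals over 30 min. Reaction: 100 nM EPAC1, 250 nM RAP1B-BODIPY-GDP, 50 uM GDP; ATA and DMSO define normalization.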
# UniProt O95398, sequence (O95398 whole entry, looked up): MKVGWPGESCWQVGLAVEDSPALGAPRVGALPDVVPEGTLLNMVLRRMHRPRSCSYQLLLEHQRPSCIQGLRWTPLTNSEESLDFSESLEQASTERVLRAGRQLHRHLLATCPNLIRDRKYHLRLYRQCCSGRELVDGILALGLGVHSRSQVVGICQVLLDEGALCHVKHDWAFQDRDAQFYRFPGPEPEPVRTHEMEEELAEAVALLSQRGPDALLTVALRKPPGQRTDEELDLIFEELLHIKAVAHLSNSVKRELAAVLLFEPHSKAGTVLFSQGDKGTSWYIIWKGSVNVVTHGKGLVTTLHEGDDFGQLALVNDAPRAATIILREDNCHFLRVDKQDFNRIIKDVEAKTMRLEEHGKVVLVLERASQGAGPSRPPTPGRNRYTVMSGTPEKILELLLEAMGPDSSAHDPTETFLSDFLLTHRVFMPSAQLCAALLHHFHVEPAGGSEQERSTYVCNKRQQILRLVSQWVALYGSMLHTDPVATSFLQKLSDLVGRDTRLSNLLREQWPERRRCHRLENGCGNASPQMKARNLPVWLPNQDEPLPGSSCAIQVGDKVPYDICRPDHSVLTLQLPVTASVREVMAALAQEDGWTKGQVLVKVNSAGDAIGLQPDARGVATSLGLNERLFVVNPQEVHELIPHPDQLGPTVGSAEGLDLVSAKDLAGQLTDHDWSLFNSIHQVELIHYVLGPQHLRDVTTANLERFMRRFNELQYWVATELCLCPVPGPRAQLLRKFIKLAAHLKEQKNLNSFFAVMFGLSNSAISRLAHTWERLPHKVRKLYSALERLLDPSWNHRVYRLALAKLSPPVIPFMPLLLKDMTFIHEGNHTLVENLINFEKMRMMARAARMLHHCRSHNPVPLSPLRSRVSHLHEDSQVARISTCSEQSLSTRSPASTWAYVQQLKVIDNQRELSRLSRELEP
row,Molecule,"activity change, negative = inhibition"
1,C[C@@H](Cc1ccccc1)NCCC(c1ccccc1)c1ccccc1,inactive: 14.7% [at 75.8 µM]
2,OCC(O)Cc1ccc2c(c1)OCO2 (stereo not drawn),inactive: 20.6%
3,CC1=C2[C@H]3OC(=O)[C@@H](C)[C@@H]3CC[C@@]2(C)C=CC1=O,inactive: 11.7%
4,COP(=S)(OC)SCN1C(=O)c2ccccc2C1=O,inactive: 20.4%
5,CCCN(CCC)C1CCc2ccc(O)cc2C1 (stereo not drawn),inactive
6,O=[N+]([O-])c1c2ccccc2cc2ccccc12,inactive: 32.4% [at 320 µM]
7,CCC(C)C(=O)OC1C(O)C2C(CN3CC(C)CCC3[C@]2(C)O)C2C[C@]34O[C@@]5(O)C(OC(=O)C(C)(O)CC)CCC3(C)C5C(OC(C)=O)C(OC(C)=O)C4[C@@]21O (stereo partly drawn),inactive: 11.4%
8,CCC(N)C(O)c1ccc(O)c(O)c1 (stereo not drawn),inactive: 15.6%
9,CCCC(=O)OC(C(Cl)(Cl)Cl)P(=O)(OC)OC (stereo not drawn),inactive: -11.8%
10,CC(C)CCON=O,inactive: 0.384%
11,C/C=C(\CC)C(=O)NC(N)=O,inactive: 19.7%
12,Oc1ccc2c3c1O[C@H]1c4c(c5ccccc5n4Cc4ccccc4)C[C@]4(O)[C@H](C2)N(CC2CC2)CC[C@@]314,inactive: -10.3%
13,H-YGGFLRKYPK-OH,inactive: 15.9% [at 15.3 µM]
14,Oc1ccc2c3c1O[C@H]1c4c(c5ccccc5n4Cc4ccccc4)C[C@@]4(O)C(C2)N(CC2CC2)CC[C@]314,inactive: 17.7%
15,COC1=CC(=O)OC(/C=C/c2ccccc2)C1 (stereo not drawn),inactive: 5.3% [at 320 µM]
16,CN(N=O)c1cc(O)ccc1O,inactive: 17.8% [at 75.8 µM]
17,COCC(C)N(C(=O)CCl)c1c(C)csc1C (stereo not drawn),inactive: 12.6%
18,Cc1nnc2n1-c1ccc(Cl)cc1C(c1ccccc1Cl)=NC2,inactive: -3.55%
19,CC(C)=CCN1CC[C@@]2(C)c3cc(O)ccc3C[C@@H]1[C@@H]2C,inactive: 14.6% [at 320 µM]
20,CC(N)Cc1c[nH]c2ccc(O)cc12 (stereo not drawn),inactive
21,CC(=O)O[C@H]1C[C@H](O[C@H]2[C@@H](O)C[C@H](O[C@H]3[C@@H](O)C[C@H](O[C@H]4CC[C@@]5(C)[C@H](CC[C@@H]6[C@@H]5C[C@@H](O)[C@]5(C)[C@@H](C7=CC(=O)OC7)CC[C@]65O)C4)O[C@@H]3C)O[C@@H]2C)O[C@H](C)[C@H]1O[C@@H]1O[C@H](CO)[C@@H](O)[C@H](O)[C@H]1O,inactive: 12.2%
22,O=C1CN=C(c2ccccc2)c2cc(Cl)ccc2N1CC1CC1,inactive: 5.97%
23,N[C@H](CCCCCP(=O)(O)O)C(=O)O,inactive

row,Molecule,"activity change, negative = inhibition"
1,C#C[C@]1(OC(=O)CCCCCC)CC[C@H]2[C@@H]3CCC4=CC(=O)CC[C@@H]4[C@H]3CC[C@@]21C,inactive: -9.31%
2,C[C@H]1CCC[C@H](O)CCCCCc2cc(O)cc(O)c2C(=O)O1,inactive: -9.66%
3,O=C(CN1CCCCC1)c1ccccc1,inactive: 13.6%
4,C/C=C1/C[C@@H](C)[C@](O)(CO)C(=O)OCC2=CCN3CC[C@@H](OC1=O)C23 (stereo partly drawn),inactive: 11.7%
5,N[C@@H](CCCCP(=O)(O)O)C(=O)O,inactive: -3.17%
6,CCOC(=O)[C@]12Cc3c(cc(OC)c(OC)c3OC)[C@H]1N(Cc1ccccc1)C(=O)c1ccccc12,inactive: 7.09%
7,COc1ccc2c3c1O[C@H]1[C@H](O)CC[C@H]4[C@@H](C2)N(C)CC[C@@]341,inactive: 20.9% [at 320 µM]
8,O=C1C=C2C(=CCOC2O)O1 (stereo not drawn),inactive: 4.96%
9,O=c1oc2ccccc2c(O)c1C(c1ccccc1O)c1c(O)c2ccccc2oc1=O,inactive: 22%
10,c1csc(C2(N3CCCCC3)CCCCC2)c1,inactive: 12.3%
11,CCOC(=O)[C@]12Cc3cc(OC)ccc3[C@H]1N(Cc1ccccc1)C(=O)c1cc(F)c(F)cc12,inactive: -17%
12,CC[C@@H]1CN2CC[C@@H]1C[C@H]2[C@H](O)c1ccnc2ccc(OC)cc12,inactive: 10.5%
13,C[C@]12N[C@H](Cc3ccccc31)c1ccccc12,inactive
14,O=C(N[C@@H]1N=C(c2ccccc2F)c2cccc3c2N(CC3)C1=O)c1cc2ccccc2[nH]1,inactive: -0.0787%
15,O=C1CCCN1CC#CCN1CCCC1,inactive
16,CC(C)(C)c1o[nH]c(=O)c1CC(N)C(=O)O (stereo not drawn),inactive: 4.34% [at 75.8 µM]
17,C=CCC1(C(C)CCC)C(=O)N=C(S)NC1=O (stereo not drawn),inactive: 16.8%
18,CCN(CC)C(C)C(=O)c1ccccc1 (stereo not drawn),inactive: -5.15%
19,COc1ccc2c(c1OC)C(=O)O[C@@H]2C1c2cc3c(cc2CCN1C)OCO3 (stereo partly drawn),inactive: 15.9%
20,N#Cc1cccc(NC(=O)N2CC3(CCN(C(=O)Oc4ccccc4)CC3)C2)c1,inactive: 11.8%
21,CC(C)n1cnc2c(C(=O)N[C@H]3CN4CCC3CC4)cc(Cl)cc21,inactive: 4.54%
22,C[C@@H](Cc1ccccc1)N(C)C,inactive: 17%
23,CC(=O)N1CC2CC(C1)c1cccc(=O)n1C2 (stereo not drawn),inactive: 11.5%

row,Molecule,"activity change, negative = inhibition"
1,CC(C)(O)[C@@H]1[C@H]2OC(=O)[C@@H]1[C@]1(O)C[C@H]3O[C@]34C(=O)O[C@H]2[C@@]14C (tested in a mixture with another compound),inactive: -2.7%
2,NC(N)=NCCCCCCCCCCN=C(N)N,inactive
3,CC1(C)C(C=C(Cl)Cl)C1C(=O)OC(C#N)c1cccc(Oc2ccccc2)c1 (stereo not drawn),inactive
4,O=C(O)[C@@H]1Cc2[nH]cnc2C(c2cccnc2)N1 (stereo partly drawn),inactive: 8.89%
5,Oc1cc(Cl)ccc1Oc1ccc(Cl)cc1Cl,inactive: -19.4%
6,NCC(O)c1cccc(O)c1 (stereo not drawn),inactive: 2.95%
7,CC[C@@H](O)C(C[C@@H](C)N(C)C)(c1ccccc1)c1ccccc1,inactive: 29.3% [at 320 µM]
8,OC[C@@H]1CCCN2CCCC[C@@H]12,inactive: 13%
9,COc1cc(CC(C)N)cc(OC)c1OC (stereo not drawn),inactive: 14.5% [at 320 µM]
10,COc1ccc2[nH]cc(CCN(C(C)C)C(C)C)c2c1,inactive: 27.2% [at 320 µM]
11,Cc1ccc(Cl)c(O)c1,inactive: 25.3%
12,CN1C[C@@H](NS(=O)(=O)N(C)C)C[C@@H]2c3cccc4c3c(cn4C)C[C@H]21,inactive: 8.33%
13,C[N+](C)(C)CC#CCOC(=O)Nc1cccc(Cl)c1,inactive
14,C=C1C(=O)O[C@@H]2C[C@@H](C)[C@@H]3C=CC(=O)[C@@]3(C)[C@@H](O)[C@H]12,inactive: 18.1% [at 320 µM]
15,CC(=O)Oc1ccc(/C=C/c2cc(OC(C)=O)cc(OC(C)=O)c2)cc1,inactive: 11.9%
16,N#C/C(=C\c1ccc(O)cc1)C(=O)O,inactive: 18.7%
17,C=CCN1CCC23c4c5ccc(O)c4O[C@H]2C(=O)CC[C@@]3(O)C1C5 (stereo partly drawn),inactive: -4.29% [at 75.8 µM]
18,CN1[C@@H]2CC[C@H]1CC(O[C@@H](c1ccccc1)c1ccc(Cl)cc1)C2 (stereo partly drawn),inactive: 4.56%
19,CC(C)(O)C(Cl)(Cl)Cl,inactive: 11.2%
20,Oc1cccc2cccnc12,inactive
21,CCCCC(CC)COC(=O)c1ccccc1C(=O)OCC(CC)CCCC (stereo not drawn),inactive: 39.3% [at 320 µM]
22,O=C1C[C@@H]2OCC=C3CN4CC[C@]56c7ccccc7N1[C@H]5[C@H]2[C@H]3C[C@H]46 (tested in a mixture with another compound),inactive
